The values that follow come from a collection of fitness landscapes (doi:10.1126/science.1257360).

To fix the notation:
B1: PhoQ; a variant is named by its letters at X, in order, P23837 (parent)
chain: MKKLLRLFFPLSLRVRFLLATAAVVLVLSLAYGMVALIGYSVSFDKTTFRLLRGESNLFYTLAKWENNKLHVELPENIDKQSPTMTLIYDENGQLLWAQRDVPWLMKMIQPDWLKSNGFHEIEADVNDTSLLLSGDHSIQQQLQEVREDDDDAEMTHSVAVNVYPATSRMPKLTIVVVDTIPVELKSSYMVWSWFIYVLSANLLLVIPLLWVAAWWSLRPIEALAKEVRELEEHNRELLNPATTRELTSLVRNLNRLLKSERERYDKYRTTLTDLTHSLKTPLXXLQXXLRSLRSEKMSVSDAEPVMLEQISRISQQIGYYLHRASMRGGTLLSRELHPVAPLLDNLTSALNKVYQRKGVNISLDISPEISFVGEQNDFVEVMGNVLDNACKYCLEFVEISARQTDEHLYIVVEDDGPGIPLSKREVIFDRGQRVDTLRPGQGVGLAVAREITEQYEGKIVAGESMLGGARMEVIFGRQHSAPKDE

The other results are listed elsewhere or left out.

Variants of B1 are the subject of this experiment. Nature of the experiment: enrichment ratio after two sorts for PhoP signalling (ratio (wild type AVST 3.29)); higher = more functional. To be noted: with PhoP (E. coli).
MCGV: the enrichment ratio was determined as 13.4. For EMDA, the enrichment ratio is not above 0.25. Take MSYE: the enrichment ratio worked out at 5.11. As to KCGS, the enrichment ratio is not above 0.25. The value for NWRF was not above 0.25; that for AWHW was not above 0.25; that for TRTP was not above 0.25. Turning to WHYG, the enrichment ratio was not above 0.25. The figure for GAYR is not above 0.25; for VLPR it is not above 0.25; for MQIV it is not above 0.25. Take DMLL: the enrichment ratio was not above 0.25. For MGVT, the enrichment ratio is not above 0.25.

With WARN, the enrichment ratio is not above 0.25. LWFS: the enrichment ratio is not above 0.25. As to KTMK, the enrichment ratio is not above 0.25.

As for GNNG, the enrichment ratio is not above 0.25. As to QAIT, the enrichment ratio is not above 0.25. The figure for PSEY is not above 0.25; for KEWF it is not above 0.25; for VPTH it is not above 0.25. As to YKSF, the enrichment ratio is not above 0.25.

Turning to VLDE, the enrichment ratio was not above 0.25. On to HCTT, for which the enrichment ratio is not above 0.25.

For RWPR, the enrichment ratio is not above 0.25.

For the variant DMSM, the enrichment ratio was not above 0.25. Consider LHKS, for which the enrichment ratio was not above 0.25. The value for NNQI was 2.97; that for LCCW was not above 0.25.

In the case of MGFY, the enrichment ratio was found to be 4.26. For PGWI, the enrichment ratio was not above 0.25. In the case of IPDF, the enrichment ratio is not above 0.25. With MICC, the enrichment ratio was 29.6. Turning to IMYL, the enrichment ratio is not above 0.25.

With TWNH, the enrichment ratio was not above 0.25.

With SKCC, the enrichment ratio turned out to be 5.39. WPNI: the enrichment ratio was not above 0.25. ADMS: the enrichment ratio is not above 0.25. The figure for FPRG is not above 0.25. In the case of PNFR, the enrichment ratio was not above 0.25. On to DIMK, for which the enrichment ratio was not above 0.25. For the variant FDCT, the enrichment ratio was not above 0.25. VLQA: the enrichment ratio was not above 0.25. IQQI: the enrichment ratio is not above 0.25. For the variant ILHQ, the enrichment ratio is not above 0.25.

Take FMDS: the enrichment ratio is not above 0.25. WRLP: the enrichment ratio was not above 0.25. On to STPT, for which the enrichment ratio came out at 0.34.

INHV: the enrichment ratio is not above 0.25. For the variant YTPY, the enrichment ratio was not above 0.25. On to WDSN, for which the enrichment ratio is not above 0.25. The value for DANC was not above 0.25; that for WYAD was not above 0.25.

RQTW: the enrichment ratio is not above 0.25. On to RFHI, for which the enrichment ratio is not above 0.25. Turning to VTPY, the enrichment ratio was not above 0.25. Consider HLRG, for which the enrichment ratio is not above 0.25.

Regarding VRFM, the enrichment ratio was not above 0.25.

For the variant TINK, the enrichment ratio came to 7.27.

LRWA: the enrichment ratio was not above 0.25. HGGI: the enrichment ratio was not above 0.25. Turning to GPMR, the enrichment ratio is not above 0.25. Consider GHWP, for which the enrichment ratio is not above 0.25.

Turning to MIHR, the enrichment ratio is not above 0.25. Regarding FGIG, the enrichment ratio was not above 0.25. The value for RTGC was not above 0.25.

With SVTQ, the enrichment ratio came out at 4.76. The figure for FKNL is not above 0.25; for NSHT it is not above 0.25; for AQYD it is not above 0.25. With MLVV, the enrichment ratio was not above 0.25. The value for LCQT was not above 0.25; that for YRFQ was not above 0.25. Turning to LNIH, the enrichment ratio was not above 0.25. FCTY: the enrichment ratio is not above 0.25. The figure for YTTS is not above 0.25; for RGMT it is not above 0.25; for YFWQ it is not above 0.25. For the variant VFHE, the enrichment ratio was not above 0.25. The figure for PTMD is not above 0.25; for YTDA it is not above 0.25; for KESC it is not above 0.25. Take IIWK: the enrichment ratio was not above 0.25.

As for IQMD, the enrichment ratio is not above 0.25. Take EFQW: the enrichment ratio is not above 0.25. On to HGSF, for which the enrichment ratio is not above 0.25. Regarding QSLM, the enrichment ratio is not above 0.25. Take TGHF: the enrichment ratio turned out to be 1.61. Regarding GQIR, the enrichment ratio was not above 0.25.

Consider QGLV, for which the enrichment ratio stood at 7.45.

Turning to LLGC, the enrichment ratio is not above 0.25. On to AREM, for which the enrichment ratio was not above 0.25. The value for VWFP was not above 0.25. As to PLQN, the enrichment ratio is not above 0.25. For the variant PGKA, the enrichment ratio is not above 0.25. Regarding IYGS, the enrichment ratio is not above 0.25. Turning to HWPL, the enrichment ratio was not above 0.25.

As for FQYN, the enrichment ratio was not above 0.25. Consider LHYQ, for which the enrichment ratio was not above 0.25. In the case of SDMA, the enrichment ratio amounted to 7.11. On to IYIT, for which the enrichment ratio is not above 0.25.

RMFA: the enrichment ratio is not above 0.25.

As for LDAW, the enrichment ratio is not above 0.25.

Regarding TLEC, the enrichment ratio is not above 0.25. With SARG, the enrichment ratio was not above 0.25. In the case of GQAN, the enrichment ratio is not above 0.25.

For the variant QAWC, the enrichment ratio was found to be 2.72.

KCCH: the enrichment ratio was not above 0.25.

Take RYLL: the enrichment ratio was not above 0.25.

Regarding NFYH, the enrichment ratio is not above 0.25.

For WGKD, the enrichment ratio is not above 0.25. As to TQKI, the enrichment ratio is not above 0.25.

On to PSAL, for which the enrichment ratio is not above 0.25. Consider QLKH, for which the enrichment ratio was not above 0.25.

On to NKHN, for which the enrichment ratio was not above 0.25. Regarding FNDY, the enrichment ratio was not above 0.25. The value for SIAD was 7.06; that for YKLW was not above 0.25; that for QIIH was not above 0.25. Turning to REFW, the enrichment ratio was not above 0.25. Turning to KHWY, the enrichment ratio was not above 0.25. The figure for FYHG is not above 0.25; for NEVF it is not above 0.25. The figure for GMNH is not above 0.25. In the case of FTST, the enrichment ratio is not above 0.25. For KPVP, the enrichment ratio was not above 0.25. In the case of EWLR, the enrichment ratio was not above 0.25.

With VFAW, the enrichment ratio is not above 0.25. Turning to WECV, the enrichment ratio was not above 0.25. For VCTF, the enrichment ratio was not above 0.25.

For QLKS, the enrichment ratio was not above 0.25. Turning to DNYV, the enrichment ratio is not above 0.25. For GCMW, the enrichment ratio was not above 0.25. Consider WPAQ, for which the enrichment ratio is not above 0.25.

As for THDS, the enrichment ratio was not above 0.25. Turning to QNHV, the enrichment ratio was not above 0.25. The value for HQNR was not above 0.25; that for SKKR was 0.677; that for WDHK was not above 0.25. The figure for GNYV is not above 0.25. GQMH: the enrichment ratio is not above 0.25.

As for TAAE, the enrichment ratio was not above 0.25.

RMHK: the enrichment ratio was not above 0.25. Turning to GTWE, the enrichment ratio was not above 0.25. As for QAYL, the enrichment ratio was determined as 9.56. The figure for RCIW is not above 0.25; for GLQM it is not above 0.25.

In the case of GTFI, the enrichment ratio is not above 0.25.

With YLPY, the enrichment ratio is not above 0.25. As to SCET, the enrichment ratio was not above 0.25. The value for IGHD was not above 0.25. Regarding YMLG, the enrichment ratio was not above 0.25. Take SIEP: the enrichment ratio was not above 0.25.
